Measured values: patent US20160289298A1 (ACCELERON PHARMA, published 2016)

Columns and labels:
BMP5 = target: T1, BMP5 (UniProt P22003 317-454, limits assumed); test: Biacore; receptor-Fc captured with anti-Fc antibody, ligand injected; ligands ranked by off-rate
T1 sequence (looked up): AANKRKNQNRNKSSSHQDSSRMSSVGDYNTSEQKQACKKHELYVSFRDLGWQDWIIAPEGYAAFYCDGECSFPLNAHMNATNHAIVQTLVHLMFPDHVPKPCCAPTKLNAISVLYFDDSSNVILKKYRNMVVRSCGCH
Protocol: Ligands were injected and allowed to flow over the captured receptor protein.

activin B = target: T2, activin B (UniProt P09529 293-407); test: SPR (Biacore), receptor-Fc captured by anti-Fc antibody, ligand injected
T2 sequence (looked up): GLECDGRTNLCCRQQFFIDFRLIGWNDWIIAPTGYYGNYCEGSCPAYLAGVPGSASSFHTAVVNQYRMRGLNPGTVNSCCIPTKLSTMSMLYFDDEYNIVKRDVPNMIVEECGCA

activin A = target: T3, activin A (UniProt P08476 311-426); test: as above
T3 sequence (looked up): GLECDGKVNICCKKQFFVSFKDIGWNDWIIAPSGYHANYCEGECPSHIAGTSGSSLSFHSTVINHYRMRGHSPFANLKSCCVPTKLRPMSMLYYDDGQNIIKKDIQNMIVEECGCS

- binding result (BMP5): binds
- binding result (activin B): binds
- binding result (activin A): binds
B1: ActRIIA-Fc homodimeric complex (Fc fusion)
chain: not shown
notes: also called homodimeric ActRIIA-Fc; not shown: linker and Fc portion of the homodimer
